Experimental data taken from the supplement of paper PMC9446081.
The whole screen tested about 39,000 compounds, of which about 220 (0.56%) showed activity. This is one part of the list.
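Also: static incubation at 37 °C against the wild-type strain, values averaged over two biological replicates.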

What follows are compounds tested on Escherichia coli K-12 BW25113 (assay: relative growth (OD600 normalised to plate interquartile mean) (fraction); higher = less growth inhibition, active = 0.2 or less). Conditions: 50 µM; LB; incubation time: overnight (16-24 h).
`O=S(=O)([O-])NC1CCCCC1.[Na+]` was tested, and the relative growth was inactive: 1.04.
`C[C@@H]1CCCCO[C@@H](CN(C)S(=O)(=O)c2ccccc2)[C@@H](C)CN([C@@H](C)CO)C(=O)c2cc(NC(=O)CCC(F)(F)F)ccc2O1` was tested, and the relative growth was inactive: 0.828.
With `CC(C)c1c(O)ccc2c1CC[C@H]1C(C)(C)CCC[C@]21C` the relative growth was inactive: 0.94.
With `CO[C@@H]1CN(C)C(=O)c2cc(NS(=O)(=O)CC(F)(F)F)ccc2OC[C@H](C)N(Cc2nccs2)C[C@H]1C` the relative growth was inactive: 0.962.
In the case of `O=c1[nH][n+](-c2ccccc2)no1`, the relative growth is reported as inactive: 0.978.
For `O=C(N[C@H](c1ccc(F)cc1)c1ccc2ccccc2n1)C1CCN(Cc2ccc3ccccc3n2)CC1`, the relative growth was inactive: 1.
`C[C@H](CO)N1C[C@H](C)[C@H](CN(C)S(=O)(=O)c2cccc(F)c2)Oc2cc(Br)ccc2S1(=O)=O` was tested, and the relative growth was inactive: 1.01.
`COc1ccc(CN(C)C[C@@H]2OCCCC[C@@H](C)Oc3ccc(NC(=O)Nc4c(C)noc4C)cc3C(=O)N([C@H](C)CO)C[C@H]2C)cc1` was tested, and the relative growth was inactive: 1.
`C[C@@H]1CN([C@H](C)CO)C(=O)c2cc(NC(=O)Nc3cccc4ccccc34)ccc2O[C@@H](C)CCCCO[C@H]1CN(C)Cc1ccc(C(=O)O)cc1` was tested, and the relative growth was inactive: 1.01.
In the case of `C[C@@H]1CCCCO[C@@H](CN(C)C(=O)Nc2ccccc2)[C@H](C)CN([C@H](C)CO)C(=O)c2cc(NC(=O)Nc3cccc4ccccc34)ccc2O1`, the relative growth is reported as inactive: 1.03.
In the case of `C[C@H](CO)N1C[C@H](C)[C@H](CN(C)C(=O)c2ccccc2)OCCCC[C@H](C)Oc2ccc(NC(=O)C3CCCCC3)cc2C1=O`, the relative growth is reported as inactive: 1.03.
In the case of `C[C@H]1CCCCO[C@H](CN(C)C(=O)CCCN(C)C)[C@@H](C)CN([C@@H](C)CO)C(=O)c2cc(NS(C)(=O)=O)ccc2O1`, the relative growth is reported as inactive: 0.981.
For `Cn1cc(S(=O)(=O)N2CCN(c3ccc(F)cc3)CC2)c(=O)n(C)c1=O`, the relative growth was inactive: 1.01.
In the case of `C[C@@H]1CCCCO[C@@H](CN(C)C(=O)CCC(F)(F)F)[C@@H](C)CN([C@@H](C)CO)C(=O)c2cc(NS(=O)(=O)c3cccs3)ccc2O1`, the relative growth is reported as inactive: 0.975.
For `O=C(C[C@@H]1C[C@@H]2c3cc(NC(=O)C4CCOCC4)ccc3O[C@@H]2[C@H](CO)O1)NCc1ccc(Cl)cc1`, the relative growth was inactive: 0.96.
For `C=CC[C@H](CC(=O)N(CCO)Cc1ccccc1)C(=O)N[C@H](COC(=O)[C@H](CC=C)CC(=O)OC(C)(C)C)Cc1c[nH]c2ccccc12`, the relative growth was inactive: 1.13.
In the case of `COCC(=O)N1C[C@@H](C)[C@H](OC)CN(C)C(=O)c2ccc(NC(=O)c3ccc(OC)cc3)cc2OC[C@H]1C`, the relative growth is reported as inactive: 1.02.
With `Cc1noc(C)c1S(=O)(=O)N(C)C[C@H]1Oc2ccc(NS(=O)(=O)c3cn(C)cn3)cc2CC(=O)N([C@@H](C)CO)C[C@H]1C` the relative growth was inactive: 0.99.
In the case of `C[C@@H]1CN([C@@H](C)CO)C(=O)Cc2cc(NS(=O)(=O)c3ccc(Cl)cc3)ccc2O[C@H]1CN(C)C`, the relative growth is reported as inactive: 0.993.
With `CC(C)NC(=O)N(C)C[C@@H]1Oc2ccc(NS(=O)(=O)c3ccccc3)cc2CC(=O)N([C@H](C)CO)C[C@H]1C` the relative growth was inactive: 0.983.
For `C[C@H]1CCCCO[C@H](CN(C)C(=O)CCC(F)(F)F)[C@@H](C)CN([C@@H](C)CO)C(=O)c2cc(NS(=O)(=O)c3cccs3)ccc2O1`, the relative growth was inactive: 0.995.
In the case of `COc1ccc(NC(=O)Nc2ccc3c(c2)C(=O)N([C@H](C)CO)C[C@H](C)[C@@H](CN(C)C(=O)Nc2cccc4ccccc24)O3)cc1`, the relative growth is reported as inactive: 0.974.
`COc1ccc(CN(C)C[C@H]2OCCCC[C@@H](C)Oc3ccc(NC(=O)NC(C)C)cc3C(=O)N([C@@H](C)CO)C[C@H]2C)cc1` was tested, and the relative growth was inactive: 1.02.
`C[C@@H]1CN([C@@H](C)CO)C(=O)c2c(c3ccccc3n2C)-c2ccccc2CO[C@H]1CN(C)S(=O)(=O)c1ccc(Cl)cc1` was tested, and the relative growth was inactive: 1.07.
With `CC(C)NC(=O)Nc1ccc2c(c1)C(=O)N([C@H](C)CO)C[C@H](C)[C@@H](CN(C)CC1CCCCC1)OCCCC[C@H](C)O2` the relative growth was inactive: 0.832.
With `C[C@@H]1CN([C@H](C)CO)C(=O)CCCn2nncc2CO[C@@H]1CN(C)C(=O)Nc1ccccc1C(F)(F)F` the relative growth was inactive: 0.997.
For `CC(C)[Si]1(C(C)C)OCc2cc(CCCc3cc4c(c(CCc5ccccc5)n3)[Si](C(C)C)(C(C)C)OC4)nc(CCc3ccccc3)c21`, the relative growth was inactive: 1.02.
`COc1ccc(CN(C)C[C@H]2Oc3c(NC(=O)C4CCOCC4)cccc3C(=O)N([C@@H](C)CO)C[C@@H]2C)cc1` was tested, and the relative growth was inactive: 0.994.
In the case of `C[C@@H]1CN([C@@H](C)CO)C(=O)c2c(c3ccccc3n2C)-c2ccccc2CO[C@@H]1CN(C)C(=O)Nc1cccc(F)c1`, the relative growth is reported as inactive: 0.983.
With `CS(=O)(=O)Cc1nc2ccccc2oc1=O` the relative growth was inactive: 0.964.
For `CNC[C@@H]1Oc2ccc(NC(=O)Cn3cnnn3)cc2C(=O)N([C@@H](C)CO)C[C@@H]1C`, the relative growth was inactive: 0.997.
For `CC(=O)OCC(CCn1cnc2cnc(N)nc21)COC(C)=O`, the relative growth was inactive: 1.07.
For `O=C(/C=C/c1cc2c(cc1Br)OCCO2)c1c(-c2ccccc2)c2cc(Cl)ccc2[nH]c1=O`, the relative growth was inactive: 1.03.
With `C[C@@H]1CCCCO[C@@H](CN(C)C(=O)Cc2ccccc2)[C@@H](C)CN([C@@H](C)CO)C(=O)c2cc(NC(=O)Nc3ccc(C(F)(F)F)cc3)ccc2O1` the relative growth was inactive: 1.01.
With `O=C1OCCC=C[C@H]2O[C@@]34C=CCN(c5ccc6ccccc6c5)C(=O)[C@H]3N(CCCCCO)C(=O)[C@@H]4[C@@H]12` the relative growth was inactive: 0.997.
For `C[C@@H]1CN([C@H](C)CO)C(=O)c2cc(NC(=O)Nc3ccc(C(F)(F)F)cc3)ccc2O[C@@H](C)CCCCO[C@H]1CN(C)C(=O)Nc1ccc(C(F)(F)F)cc1`, the relative growth was inactive: 1.02.
In the case of `NCCSc1cc(C(F)(F)F)nc2ccccc12`, the relative growth is reported as inactive: 0.938.
`C[C@@H]1CN([C@H](C)CO)C(=O)c2cc(NS(=O)(=O)c3ccc(F)cc3)ccc2O[C@@H]1CN(C)Cc1ccc(-c2ccccc2)cc1` was tested, and the relative growth was inactive: 1.01.
